In the supplement of paper PMC9446081:
About 220 (0.56%) of roughly 39,000 compounds showed activity. This is one part of the list.

What follows are compounds tested on Escherichia coli K-12 BW25113 (assay: relative growth (OD600 normalised to plate interquartile mean) (fraction); higher = less growth inhibition, active = 0.2 or less). Details: 50 µM; LB; incubation time: overnight (16-24 h).
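Further: static incubation at 37 °C against the wild-type strain, values averaged over two biological replicates.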

SMILES | relative growth
C[C@@H]1CCCCO[C@@H](CN(C)Cc2ccncc2)[C@H](C)CN([C@@H](C)CO)C(=O)c2cc(NC(=O)Cc3ccccc3)ccc2O1 | inactive: 0.999
O=C1N[C@H](c2ccccc2)COCc2cn(nn2)CC[C@@H](Cc2ccc(C(F)(F)F)cc2)C(=O)N[C@H](c2ccccc2)COCc2cn(nn2)CC[C@H]1Cc1ccc(C(F)(F)F)cc1 | inactive: 1.01
C[C@@H]1CN([C@@H](C)CO)C(=O)Cc2cc(NC(=O)Nc3ccccc3)ccc2O[C@H]1CN(C)C(=O)Nc1ccc(C(F)(F)F)cc1 | inactive: 0.975
COc1ccc(S(=O)(=O)Nc2ccc3c(c2)C(=O)N([C@H](C)CO)C[C@H](C)[C@H](CN(C)Cc2ccc(Cl)c(Cl)c2)O3)cc1 | inactive: 1.01
Cc1ccc(S(=O)(=O)Nc2ccc3c(c2)CC(=O)N([C@H](C)CO)C[C@H](C)[C@@H](CN(C)C(=O)Nc2cccc4ccccc24)O3)cc1 | inactive: 0.989
C[C@H]1CN([C@@H](C)CO)C(=O)Cc2cc(NS(=O)(=O)c3cn(C)cn3)ccc2O[C@H]1CN(C)C(=O)Nc1ccc2c(c1)OCO2 | inactive: 1.03
C[C@@H]1CN([C@@H](C)CO)C(=O)c2cc(C#CCN(C)C)cnc2O[C@H]1CN(C)C(=O)CN1CCOCC1 | inactive: 1.03
COc1ccc(NC(=O)Nc2ccc3c(c2)C(=O)N([C@H](C)CO)C[C@H](C)[C@@H](CN(C)Cc2ccccc2)OCCCC[C@H](C)O3)cc1 | inactive: 0.993
O=C(O)CCCCCCNC(=O)c1ccc(NCc2cn(Cc3ccc(Cn4cc(CNc5ccc(C(=O)NCCCCCCC(=O)NO)cc5)nn4)cc3)nn2)cc1 | inactive: 0.991
CCCNC(=O)N1C[C@@H](O)COC[C@H]2O[C@H](CC(=O)N3CCOCC3)CC[C@@H]21 | inactive: 0.918
COc1ccc([Si](C)(C)[C@H]2[C@H](CC(=O)N3Cc4ccccc4C[C@H]3CO)O[C@@]3(C(=O)N(Cc4ccc(N5CCOC5=O)cc4)c4ccccc43)[C@@H]2C)cc1 | inactive: 0.986
O=C(CN1C(=O)c2ccccc2C1=O)N1CCNCC1 | inactive: 0.92
O=c1cc(O)nc[nH]1 | inactive: 1.01
O=C(O)CCc1n[nH]c(=O)[nH]c1=O | inactive: 0.995
COc1ccc(NC(=O)N(C)C[C@H]2Oc3ccc(NS(C)(=O)=O)cc3C(=O)N([C@@H](C)CO)C[C@H]2C)cc1 | inactive: 0.929
C[C@@H]1CCCCO[C@H](CN(C)C(=O)Cc2ccccc2)[C@@H](C)CN([C@@H](C)CO)C(=O)c2cc(NC(=O)C3CCCCC3)ccc2O1 | inactive: 0.99
C[C@@H]1CN([C@H](C)CO)C(=O)Cc2cc(NC(=O)Nc3cccc4ccccc34)ccc2O[C@H]1CN(C)C(=O)Nc1ccc(F)cc1 | inactive: 1.01
C[C@@H]1CCCCO[C@H](CN(C)Cc2ccccc2)[C@H](C)CN([C@@H](C)CO)C(=O)c2cc(NC(=O)Nc3ccccc3)ccc2O1 | inactive: 0.997
COc1cccc(S(=O)(=O)N(C)C[C@@H]2Oc3cc(C#CCC(C)C)ccc3S(=O)(=O)N([C@@H](C)CO)C[C@H]2C)c1 | inactive: 0.993
C[C@H]1CN([C@@H](C)CO)C(=O)c2cccc(NS(=O)(=O)c3ccc(F)cc3)c2O[C@H]1CN(C)Cc1ccncc1 | inactive: 0.989

SMILES | relative growth
CCS(=O)(=O)N1C[C@]2(C1)CN([C@H](CO)c1[nH]c3cc(ccc3c12)OC)S(=O)(=O)c1ccc(cc1)C | inactive: 1.03
Cc1cccc(C)c1OCC(=O)NC(Cc1ccccc1)C(O)CC(Cc1ccccc1)NC(=O)C(C(C)C)N1CCCNC1=O (stereo not drawn) | inactive: 1.02
NCCCC[C@H](NC(=O)[C@@H](NC(=O)[C@H](Cc1c[nH]c2ccccc12)NC(=O)[C@H](CCCCN)NC(=O)[C@H](CCCCN)NC(=O)[C@H](Cc1c[nH]c2ccccc12)NC(=O)[C@H](Cc1c[nH]c2ccccc12)NC(=O)[C@H](CCCCN)NC(=O)[C@@H](N)CCCCN)C(c1ccccc1)c1ccccc1)C(N)=O | active: 0.149
C[C@@H]1CN([C@H](C)CO)C(=O)c2cccc(NC(=O)C3CC3)c2O[C@@H]1CN(C)Cc1ccc2c(c1)OCO2 | inactive: 0.977
O=C(C[C@H]1CC[C@@H]2[C@H](COC[C@@H](O)CN2S(=O)(=O)c2ccc(Cl)cc2)O1)NCCN1CCCC1 | inactive: 0.975
C[C@@H]1CN([C@H](C)CO)C(=O)c2cccc(NC(=O)C3CCCCC3)c2O[C@H]1CN(C)C(=O)Nc1ccc(C(F)(F)F)cc1 | inactive: 0.954
C[C@H](CO)N1C[C@H](C)[C@@H](CN(C)Cc2ccccc2)OCCCC[C@H](C)Oc2ccc(NC(=O)CCC(F)(F)F)cc2C1=O | inactive: 0.999
C[C@H](CO)N1C[C@H](C)[C@H](CN(C)S(=O)(=O)c2ccc(C#N)cc2)Oc2ncc(C#Cc3ccccc3)cc2C1=O | inactive: 1.03
CC(C)NC(=O)Nc1ccc2c(c1)CC(=O)N([C@@H](C)CO)C[C@H](C)[C@H](CN(C)S(=O)(=O)c1cn(C)cn1)O2 | inactive: 0.985
COC1=CC(C)C2CC3OC(=O)CC4C(C)=C(OC)C(=O)C(C2(C)C1=O)C34C (stereo not drawn) | inactive: 1.06
Cn1cnc(S(=O)(=O)N[C@H]2C=C[C@H](CC(=O)Nc3ccccc3)O[C@@H]2CO)c1 | inactive: 0.992
Cc1ccc(S(=O)(=O)N(C)C[C@@H]2OCCCC[C@H](C)Oc3ccc(NC(=O)Nc4ccc(F)cc4)cc3C(=O)N([C@@H](C)CO)C[C@H]2C)cc1 | inactive: 1.02
C[C@H](CO)N1C[C@H](C)[C@H](CN(C)Cc2ccc(-c3ccccc3)cc2)Oc2c(NC(=O)Nc3ccc(C(F)(F)F)cc3)cccc2C1=O | inactive: 1.03
Cc1ccc(S(=O)(=O)N(C)C[C@@H]2Oc3ccc(NS(=O)(=O)c4cccs4)cc3C(=O)N([C@@H](C)CO)C[C@H]2C)cc1 | inactive: 1.03
COCC#Cc1cnc2c(c1)C(=O)N([C@@H](C)CO)C[C@H](C)[C@@H](CN(C)C(=O)Nc1cc(F)ccc1F)O2 | inactive: 0.98
NC(=S)N/N=C/c1ccncc1 | inactive: 0.961
CO[C@H]1CN(C)C(=O)c2ccc(NS(C)(=O)=O)cc2OC[C@H](C)N(C(=O)C2CCCCC2)C[C@@H]1C | inactive: 0.962
O=C(OC[C@]12O[C@H]1[C@@H](O)[C@@H]1C=CO[C@@H](O[C@@H]3O[C@H](CO)[C@@H](O)[C@H](O)[C@H]3O)[C@@H]12)c1ccccc1 | inactive: 1.01
C[C@@H]1CN([C@@H](C)CO)C(=O)c2cccc(NS(=O)(=O)c3ccc(F)cc3)c2O[C@@H]1CN(C)S(=O)(=O)c1cccs1 | inactive: 0.957
C=CC[C@H](CC(=O)NCCO)C(=O)N[C@@H](COC(=O)[C@H](CC=C)CC(=O)OC(C)(C)C)Cc1c[nH]c2ccccc12 | inactive: 0.99

SMILES | relative growth
Cc1c(Cl)cccc1Nc1ncccc1C(=O)O | inactive: 1.01
COc1ccccc1C#Cc1ccc2c(c1)O[C@@H](CN(C)Cc1cccnc1)[C@@H](C)CN([C@H](C)CO)S2(=O)=O | inactive: 1.03
CN1C(=O)c2cc(NS(=O)(=O)c3ccc(F)cc3)ccc2OC[C@@H]2O[C@@H](CC(=O)NCC(F)(F)F)CC[C@@H]21 | inactive: 0.946
C[C@@H]1CN([C@@H](C)CO)C(=O)c2cccc(NC(=O)c3cnccn3)c2O[C@H]1CN(C)S(=O)(=O)c1ccc(F)cc1 | inactive: 0.843
C[C@@H]1CN([C@@H](C)CO)C(=O)c2cc(NC(=O)c3ccncc3)ccc2O[C@H]1CN(C)Cc1ccc(-c2ccccc2)cc1 | inactive: 0.909
Nc1nonc1C(=O)NCc1ccco1 | inactive: 0.995
CC=Cc1ccc2n(c1=O)C[C@@H]1[C@@H](CO)[C@H](C(=O)NC3CCC3)N(S(C)(=O)=O)[C@H]21 | inactive: 1.03
C[C@@H]1CN([C@@H](C)CO)S(=O)(=O)c2ccc(C#Cc3ccccc3F)cc2O[C@@H]1CN(C)C(=O)Cc1cccnc1 | inactive: 1.05
COc1ccc(NC(=O)N(C)C[C@H]2Oc3ccc(NC(=O)Cn4cnnn4)cc3C(=O)N([C@@H](C)CO)C[C@H]2C)cc1 | inactive: 1.01
COCC(=O)N(C)C[C@@H]1Oc2cc(-c3ccc(OC)cc3)ccc2S(=O)(=O)N([C@H](C)CO)C[C@@H]1C | inactive: 0.922
C[C@@H]1CN([C@@H](C)CO)C(=O)c2cc(NC(=O)NC3CCCCC3)ccc2O[C@@H](C)CCCCO[C@@H]1CN(C)Cc1ccc2c(c1)OCO2 | inactive: 0.998
COc1ccc([Si](C)(C)[C@@H]2[C@@H](CC(=O)N(CCO)Cc3ccccc3)O[C@]3(C(=O)N(Cc4ccc(N5C(=O)c6cccc7cccc5c67)cc4)c4ccccc43)[C@H]2C)cc1 | inactive: 1.02
CNC[C@@H]1OCCCC[C@@H](C)Oc2ccc(NC(=O)c3ccncc3)cc2C(=O)N([C@H](C)CO)C[C@H]1C | inactive: 1.01
C[C@@H]1CN([C@@H](C)CO)C(=O)c2cc(C#Cc3ccncc3)cnc2O[C@H]1CN(C)C(=O)c1ccccc1F | inactive: 0.994
C[C@@H]1CN([C@@H](C)CO)C(=O)c2cc(C#Cc3ccccc3)cnc2O[C@@H]1CN(C)S(=O)(=O)c1ccccc1F | inactive: 1.02
Cc1noc(C)c1S(=O)(=O)Nc1ccc2c(c1)CC(=O)N([C@H](C)CO)C[C@@H](C)[C@@H](CN(C)S(=O)(=O)c1ccc(Cl)cc1)O2 | inactive: 0.989
Cc1cc(C(=O)O)sc1[C@@H](N)C(=O)O | inactive: 0.967
O=C(CCCCCNC(=O)OCc1ccc(CO[C@@H]2C[C@H](C3CCCCC3)C=C(C(=O)N3CCN(Cc4ccccc4)CC3)O2)cc1)NO | inactive: 0.968
